Results published in paper PMC4336329 (PLoS ONE, 2015).
Out of some 310,000 compounds screened, about 14,000 (4.5%) showed an effect of 50% or more. Effects have a minus sign here. This is one part of the list.

biological target: human ether-à-go-go-related gene (hERG) potassium channel (human, UniProt Q12809); experiment: primary screen, population patch clamp on CHO cells stably expressing hERG
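Further: peak tail current of the secondary pulse compared with the same well before compound.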

human ether-à-go-go-related gene (hERG) potassium channel, sequence (Q12809 whole entry, looked up): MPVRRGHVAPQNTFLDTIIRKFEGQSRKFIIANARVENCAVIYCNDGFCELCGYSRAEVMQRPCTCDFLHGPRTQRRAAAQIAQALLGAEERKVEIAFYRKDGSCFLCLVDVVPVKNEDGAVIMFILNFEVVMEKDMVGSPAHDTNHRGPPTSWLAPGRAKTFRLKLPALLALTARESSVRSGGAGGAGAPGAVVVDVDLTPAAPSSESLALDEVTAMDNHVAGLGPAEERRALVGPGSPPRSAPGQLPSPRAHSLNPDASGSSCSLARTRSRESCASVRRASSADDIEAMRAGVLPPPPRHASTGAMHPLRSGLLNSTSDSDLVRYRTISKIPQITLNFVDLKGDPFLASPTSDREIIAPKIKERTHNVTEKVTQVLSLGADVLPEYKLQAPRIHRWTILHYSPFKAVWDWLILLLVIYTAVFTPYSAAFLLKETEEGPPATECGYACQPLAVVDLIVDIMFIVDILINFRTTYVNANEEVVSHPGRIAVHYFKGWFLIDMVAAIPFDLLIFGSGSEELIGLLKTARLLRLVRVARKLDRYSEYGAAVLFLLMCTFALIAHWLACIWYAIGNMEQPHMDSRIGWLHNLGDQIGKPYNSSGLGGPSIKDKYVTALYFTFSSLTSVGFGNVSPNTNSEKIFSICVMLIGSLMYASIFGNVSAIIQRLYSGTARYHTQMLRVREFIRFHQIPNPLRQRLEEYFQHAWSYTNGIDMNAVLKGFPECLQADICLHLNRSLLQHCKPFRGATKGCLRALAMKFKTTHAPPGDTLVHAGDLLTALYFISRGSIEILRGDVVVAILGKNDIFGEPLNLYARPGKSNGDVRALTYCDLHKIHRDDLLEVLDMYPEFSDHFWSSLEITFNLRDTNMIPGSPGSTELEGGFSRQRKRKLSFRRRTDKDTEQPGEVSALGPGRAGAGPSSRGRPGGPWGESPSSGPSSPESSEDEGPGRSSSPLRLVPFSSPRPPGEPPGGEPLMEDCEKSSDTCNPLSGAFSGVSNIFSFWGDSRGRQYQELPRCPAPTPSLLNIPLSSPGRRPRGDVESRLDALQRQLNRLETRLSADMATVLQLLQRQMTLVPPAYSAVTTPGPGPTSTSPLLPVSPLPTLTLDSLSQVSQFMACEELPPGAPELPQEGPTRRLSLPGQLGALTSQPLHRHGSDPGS

Row | Structure (SMILES) | hERG current change (%, negative = inhibition) at 10uM
1 | CCCCOc1cccc(C2/C(=C(/O)c3ccc4c(c3)CC(C)O4)C(=O)C(=O)N2CCN2CCOCC2)c1 (stereo not drawn) | 8.57%
2 | Cc1cc(-n2c(C)cc(C(=O)COC(=O)CN=C3NS(=O)(=O)c4ccccc43)c2C)no1 | 4.85%
3 | O=S(=O)(c1ccc(NC(=S)Nc2ccccc2)cc1)N1CCOCC1 | -6.94%
4 | O=C(O)COC(=O)Cc1ccccc1Nc1c(Cl)cccc1Cl | 19.2%
5 | O=C(CCc1c[nH]c2ccccc12)OCC(=O)N1CCN(S(=O)(=O)c2ccccc2)CC1 | -24.2%
6 | CN1CCN(c2ccc(-c3cccc(NC(=O)COc4ccccc4)c3)nn2)CC1 | -35.9%
7 | Cc1cc(NS(=O)(=O)c2ccc(NC(=O)c3cnc4sccn4c3=O)cc2)nc(C)n1 | 13.4%
8 | Cc1cccc(OCCCC(=O)Nc2ccc(Cl)c(S(=O)(=O)N3CCOCC3)c2)c1 | -18.2%
9 | CC[C@H](C)C1NC(=O)[C@H](CC(=O)O)NC(=O)c2cc([N+](=O)[O-])cc(I)c2NCCC(C(N)=O)NC1=O (stereo partly drawn) | 18.2%
10 | CCCCCc1nc2ccccc2c(=O)n1-c1ccccc1[N+](=O)[O-] | -24.5%
11 | N#C/C(=C\c1c(N2CCC(C(N)=O)CC2)nc2ccccn2c1=O)S(=O)(=O)c1ccc(Cl)cc1 | -70.9%
12 | O=C(Cc1ccccn1)c1ccc(Cl)cc1 | 17%
13 | C=CCC(CC=C)(C(=O)O)c1ccccc1 | -8.46%
14 | CN(C)CCCN1C(=O)C(=O)/C(=C(/O)c2ccncc2)C1c1cccc(Br)c1 (stereo not drawn) | 11.3%
15 | N#CC1=C2N=C(N)c3ccccc3N2C2=C(C(=O)CCC2)C1c1cccc(Cl)c1 (stereo not drawn) | -6.16%
16 | COc1cc2c(cc1OC)CN(c1ccc([N+](=O)[O-])c(C(F)(F)F)c1)CC2 | -8.39%
17 | N#CCSc1nccc(/C=C/c2ccccc2)n1 | 4.5%
18 | OC(CN1CCOCC1)(c1ccccc1)c1ccccn1 (stereo not drawn) | 9.52%
19 | CN1CCCC(OC(=O)COc2ccccc2)C1.Cl (stereo not drawn) | 10.4%

Row | Structure (SMILES) | hERG current change (%, negative = inhibition) at 10uM
20 | O=C(NCC(=O)N1CCCCCCC1)c1ccco1 | 2.46%
21 | CCC1CCCCN1CC(=O)Nc1ccc2c(c1)OCCO2 (stereo not drawn) | 10.6%
22 | COc1ccc(C(=O)COC(=O)c2cc3ccccc3oc2=O)c(OC)c1 | -3.73%
23 | Cc1ccc(NC(=O)CSc2nnc(Cc3cccn3C)n2-c2ccc(F)cc2)c(C)c1 | -1.67%
24 | CCOc1ccc(NC(=O)C2CCCN(c3c(CC)c(C)nc4ncnn34)C2)cc1 (stereo not drawn) | -65.8%
25 | O=C(Cc1nc2ccccc2[nH]1)NCc1ccco1 | 10.4%
26 | O=C(O)/C=C/c1coc2ccc(F)cc2c1=O | 9.13%
27 | Cc1cccc2c1nc(-c1ccccc1)n1cnnc21 | -11.6%
28 | Cc1cccc2[nH]c(SCC(=O)O)nc12 | 12.7%
29 | COCCOC(=O)/C(=C/c1ccc(OC(=O)c2ccccc2)cc1)C(C)=O | -18%
30 | COc1cc(-c2nc3ccccn3c2N)ccc1O | -9.44%
31 | C/C(Cn1nnc([N+](=O)[O-])n1)=N\NC(=O)c1ccc(C)cc1 | -11.6%
32 | COC(=O)CC1=C(C(=O)OC)C(c2ccc3c(c2)OCO3)C(C#N)=C(N)O1 (stereo not drawn) | 1.59%
33 | Cc1nnc(C)n1/N=C/c1cc2ccccc2nc1Cl | -14.3%
34 | CC(=O)c1c(C)[nH]c(C(=O)OC2CCOC2=O)c1C (stereo not drawn) | 5.1%
35 | O=C(Cn1ccccc1=O)Nc1ccc(Cl)c(S(=O)(=O)N2CCCCC2)c1 | -79.4%
36 | COC(=O)c1ccccc1NC(=O)CC(NCc1ccccc1)C(=O)O (stereo not drawn) | -20.7%
37 | OC1CC(c2ccco2)NC2(CCCCC2)C1 (stereo not drawn) | -3.62%
38 | Clc1ccccc1C1NCc2ccccc2-n2cccc21 (stereo not drawn) | 7.79%

Row | Structure (SMILES) | hERG current change (%, negative = inhibition) at 10uM
39 | COC(=O)CCCC(=O)N1CCC(n2nccc2NC(=O)CCOc2ccccc2)CC1 | 8.96%
40 | CN(Cc1ccccc1)C(=O)CSc1cc(=O)n(C)c2ccccc12 | -14.6%
41 | O=C(Nc1nccs1)C1CCN(S(=O)(=O)c2ccc(Cl)c(C(F)(F)F)c2)CC1 | -0.668%
42 | CCC(C)C(NC(=O)c1ccccc1NC(=O)c1ccco1)C(=O)NC1CCCCC1 (stereo not drawn) | -0.295%
43 | c1ccc(CN2CCN(c3nc(-c4ccccc4)nc4ccccc34)CC2)cc1 | 8.72%
44 | COc1cc(CCC(=O)OCC(=O)Nc2ncc(Cl)cc2Cl)cc(OC)c1OC | -16.2%
45 | CCNCC(O)COCC(O)CNCC (stereo not drawn) | 19.2%
46 | CN(C(=O)COC(=O)c1cc(-c2ccc(Cl)s2)nc2ccccc12)C1CCS(=O)(=O)C1 (stereo not drawn) | 6.06%
47 | O=C(CCNc1ccc(Cl)cc1)c1cccs1 | 11.1%
48 | O=C(/C=C/c1cccc(Cl)c1)NCc1ccccc1 | -6.39%
49 | Cc1cc(C)cc(N(CC(=O)Nc2cc(C)ccc2C)S(=O)(=O)c2c(C)[nH]c(=O)[nH]c2=O)c1 | 5.03%
50 | O=C(NCc1cccs1)C(=O)c1c[nH]c2ccccc12 | -0.144%
51 | O=C(Cc1ccc(Br)cc1)NCc1ccccc1 | 15.9%
52 | Cc1cc2[nH]c(=O)c(=O)[nH]c2cc1S(=O)(=O)Nc1cccc(Cl)c1C | -0.165%
53 | O=C(Nc1nnc(Cc2ccccc2)s1)c1cccnc1 | 11.7%
54 | CC1CSc2ccccc2NC1=S (stereo not drawn) | 7.67%
55 | O=C(c1ccc2c(c1)OCO2)C1CCCN(C2CCN(CCc3ccccc3)CC2)C1 (stereo not drawn) | -69.3%
56 | CN(c1nc2ccccc2n2c(C3CC3)nnc12)S(=O)(=O)c1ccccc1 | 11.5%
57 | CSC1=N/C(=C\C=C\c2cccs2)C(=O)S1 | 13.4%
